From PubChem BioAssay (NCI) come the findings set out here.

In this experiment the test system is NCI-H322M lung. Description: NCI-60 cell line screen, 48 h.

Values joined by “and” are separate entries in the source; they are usually repeats but may differ in a detail not shown here. Equal values may be shown once.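 Dose response: 5 concentrations. Exposure: 48 h. Format: 96-well plates. Endpoint: linear interpolation; highest concentration if not reached. The concentration for 50% growth inhibition is given as GI50. Definition used: TGI = concentration required for complete inhibition of growth.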

As to `Cc1cccc(C)c1N1C(=O)C(=O)C(c2nc3ccccc3s2)/C(=N\N)C1=O` (configuration not stated), the TGI was over 100 µM.
Consider `CC1C2C=C(O)C(=O)C(C2=O)C1c1ccccc1` (configuration not stated), for which the TGI is over 100 µM.
Take `CC(C)CCCCCCCCCCCCC(=O)NCC(=O)NC1C(O)C(O)C(Nc2ncnc3nc[nH]c23)OC1C(O)CO` (configuration not stated): the TGI was 0.0347 µM and 0.0943 µM and 0.286 µM.
As to `CC(=O)[C@H]1CCC/C=C/[C@@H]2C[C@H](O)C[C@H]2[C@H](O)/C=C/C(=O)O1`, the GI50 is 1.14 µM and the TGI amounted to 40.3 µM.
For the molecule `CC(C)C(OC(=O)c1ccc(NCC2=CC(=O)C=CC2=O)cc1)C(C)C`, the TGI came to 60.7 µM.
As for `COc1cccc(/C=C2\S/C(=N/Nc3nc(C)c(C)s3)NC2=O)c1O`, the TGI is over 100 µM.
Turning to `N#Cc1cnc(Nc2cc(NC[C@H]3CNCCO3)c(C(F)(F)F)cn2)cn1`, the GI50 is 8.43 µM and the TGI is 62.3 µM.
Regarding `CN(C)c1c(C2OC(CO)C(O)C2O)c(=O)c1=O` (configuration not stated), the TGI is over 100 µM.
As for `CCCCCCCCCC[C@H](O)[C@H](O)CC[C@@H](O)[C@H]1CC[C@@H]([C@H]2CC[C@H](CCCCCCC[C@@H](O)CC3=C[C@H](C)OC3=O)O2)O1`, the GI50 is 30.4 µM and the TGI was over 100 µM.
For the molecule `CSc1nc2c(c(=O)n1C)CN(C1CCCCC1)C(=O)C(c1ccccc1)N2` (configuration not stated), the GI50 was 22.3 µM and the TGI is over 100 µM.
Consider `CCCSc1ccc2[nH]c(N3C(=O)/C(=C/c4ccc(SC)cc4)N=C3c3ccccc3)cc2c1`, for which the TGI is over 50 µM.
The same measure, in the same setting: the figure for `COc1cc(/C=N/N=C(\N)NO)c(Cl)cc1O` is over 100 µM.
For `CC(=O)[C@H]1CCC2[C@@H]3CC=C4C[C@@H]([O-])CC[C@]4(C)C3CC[C@@]21C.CC(=O)[C@H]1CCC2[C@@H]3CC=C4C[C@@H]([O-])CC[C@]4(C)C3CC[C@@]21C.CC(=O)[CH-]C(=O)c1ccccc1.CC(=O)[CH-]C(=O)c1ccccc1.Cl.[Ti+4]` (some centres not stated), the GI50 is 29.7 µM and the TGI was over 100 µM.
`COC(=O)c1cc(NC(=O)Cc2c[nH]c3ccccc23)cn1C` had a TGI of over 100 µM.
Same read-out and setting: the figure for `CC(=O)OCC(=O)OC[C@H](OCc1ccccc1)[C@@H]1[C@H](OC(C)=O)C(=O)N1Cc1ccccc1` is over 100 µM.
Turning to `CC[C@@H](C)/C=C(C)/C=C/C(=O)c1c(O)c(-c2ccc(O)cc2)cn(O)c1=O`, the GI50 was 0.33 µM and the TGI was determined as 14 µM.
The molecule `O=[N+]([O-])c1ccc(-n2nc3ccc4c(no[n+]4[O-])c3n2)cc1` gave a TGI of 52.9 µM.
On to `CN1CCN(Cc2ccc(NC(=O)c3cncc(C#Cc4cnc(N)c5cccnc45)c3)cc2C(F)(F)F)CC1`, for which the GI50 was 0.261 µM and the TGI is over 50 µM.
Consider `O=C1c2ccccc2-c2c1c1ccccc1c(=O)n2CCCNCCn1c2c(c3ccccc3c1=O)C(=O)c1ccccc1-2`, for which the GI50 is 17.9 µM and the TGI amounted to 32.4 µM.
In turn, `CNS(=O)(=O)NNS(=O)(=O)c1ccc(OC)cc1` displayed a TGI of over 100 µM.
Take `C=CCC(N[C@@H](CO)c1ccccc1)c1cn(C(=O)OCC)c2ccccc12` (some centres not stated): the GI50 is 20.4 µM and the TGI is over 100 µM.
As for `COC(=O)c1cc2c3ccccc3n3c2c(n1)-c1[nH]c2ccccc2c(=O)c1C3`, the GI50 was over 100 µM and the TGI was over 100 µM.
Take `CC1=CC(C)(C)NN1C1=NS(=O)(=O)c2ccccc2N1C`: the TGI was over 100 µM.
In the case of `O=C(O)C1[O][Sb][O]C(C(=O)O)C1O` (configuration not stated), the GI50 is over 100 µM and the TGI was over 100 µM.
On to `Cn1cc(-c2cnn3c(N)c(Br)c(C4CCCNC4)nc23)cn1` (configuration not stated), for which the GI50 was 13 µM and the TGI is over 100 µM.
In the case of `CC1CCC2CC(=O)OC([C@@H]3C(=O)O[C@@H](C4=CCCC4)C4C(C)CCC43)C12` (some centres not stated), the TGI was over 100 µM.
Same read-out and setting: as for `O=C(/C=C/c1ccccc1)Nc1ccccc1SCCCCl`, the figure is over 100 µM.
Take `CC(=O)[CH-]C(=O)c1ccccc1.CC(=O)[CH-]C(=O)c1ccccc1.CC(=O)[CH-]C(=O)c1ccccc1.[Nd+3].[OH3+]`: the GI50 is 37.5 µM and the TGI is over 100 µM.
Turning to `Cc1c(CCCl)c(N=P(c2ccccc2)(c2ccccc2)c2ccccc2)n2c(nc3ccccc32)c1C#N`, the TGI was over 10 µM.
In turn, `C=CC1CN(C(=O)OCC)N(C(=O)OCC)C1CCc1ccccc1` (configuration not stated) registered a TGI of over 100 µM.
Consider `O=Cc1cc(C(=O)OCc2ccccc2)n(S(=O)(=O)c2ccccc2)c1`, for which the TGI is over 100 µM.
For the molecule `N#CC(C(=O)/C(=N\NC(N)=O)C(C#N)c1ccccc1)c1ccccc1` (configuration not stated), the TGI was over 100 µM.
Take `C=C1C(=O)O[C@H]2C1C[C@@H](OC(C)=O)/C(C)=C/CC[C@@]1(C)O[C@H]21` (some centres not stated): the TGI worked out at 34.9 µM.
Consider `CN(CCCNC(=O)c1cn(C)c2c1Cc1ccccc1-2)CCCNC(=O)c1cn(C)c2c1Cc1ccccc1-2`, for which the TGI came out at 24.4 µM.
Turning to `COC(=O)c1oc2c(C(=O)/C=C/c3ccc(OC)cc3)c(OCCN(C)C)ccc2c1C`, the GI50 is 7.04 µM and the TGI stood at 20.9 µM.
Regarding `C/C(=N\NC(=O)c1ccccc1O)c1cccc(/C(C)=N/NC(=O)c2ccccc2O)n1.O=S(=O)([O-])[O-].[Fe+2]`, the GI50 was over 100 µM and the TGI is over 100 µM.
`CCOc1ccccc1N=Nc1c(-c2ccccc2)nn(C(=O)CC(=O)Nc2cccc(C)c2)c1-c1ccccc1` displayed a TGI of over 100 µM.
`CSCSCC(CO)NC(=O)/C(C)=C\c1c(C)[nH]c(=O)[nH]c1=O` (configuration not stated) returned a TGI of over 250 µM.
`O=C1/C(=C/c2ccccc2[N+](=O)[O-])N=C(c2ccccc2)N1c1nc2ccccc2s1` registered a TGI of over 100 µM.
Molecule `CC1=C(O)c2ccccc2C(=O)C1=O` had a TGI of over 100 µM.
Molecule `O=C1CCc2ccc(O)c(c2)Oc2ccc(cc2)C(Sc2ccccc2)CCO1` (configuration not stated) had a TGI of 28.3 µM.
As for `CC(=O)NCC1OC2COC(c3ccccc3)OC2C(NC(=O)c2ccccc2)C1OC(=O)c1ccccc1` (configuration not stated), the TGI is over 100 µM.
As to `Cc1cc(Nc2cc(N3CCN(C)CC3)nc(/C=C/c3ccccc3)n2)n[nH]1`, the GI50 was 0.91 µM and the TGI is over 8.68 µM.
Molecule `COC(=O)[C@@]12CC(C(C)C)[C@H]3CC(C(=O)C=C1OC)[C@H]32` (some centres not stated) came in with a TGI of over 100 µM.
The same measure, in the same setting: the figure for `COC(=O)CCNC(=O)OCc1ccccc1` is over 100 µM.
With `COc1ccc(/C=C2/SC(Nc3nc(-c4nc(NC5=NC(=O)/C(=C\c6ccc(OC)cc6)S5)sc4C)c(C)s3)=NC2=O)cc1`, the GI50 was 1.11 µM and the TGI amounted to 4.93 µM.
For the molecule `[B-][P+](CC[P+]1([B-])[C@@H](C)[C@@H](O)[C@H](O)[C@@H]1C)(c1ccccc1)c1ccccc1OC` (some centres not stated), the TGI came to 26.6 µM.
For the molecule `COc1ccc2c(c1)/C(=C\c1c(Cl)[nH]c3ccccc13)C(=O)N2`, the TGI turned out to be 19.2 µM.
Regarding `CCCCCC/C=C\CCCCCCCCCC1=C(CN2CCN(C)CC2)C(=O)C=C(OC)C1=O`, the TGI was found to be 27.6 µM.
In the case of `O=C(Nc1ccc(Cl)cc1Cl)OC(Cn1cncn1)c1ccc(Cl)cc1Cl` (configuration not stated), the TGI amounted to 32.2 µM.
The molecule `C=C(C(=O)OC)[C@@H]1C[C@@H](OC(C)=O)C2=C[C@H](C[C@@]3(C)O[C@@H]3C3=CC(C)=C(O3)[C@H]1OC(C)=O)OC2=O` displayed a TGI of over 100 µM.
In turn, `OC(CN(CCCl)CCCl)C(O)C(O)C(O)CN(CCCl)CCCl` (configuration not stated) came in with a TGI of over 100 µM.
Turning to `CCOC(=O)c1nc2ccc(C(F)(F)F)cc2nc1NCc1ccc(OC)c(OC)c1`, the TGI is over 100 µM.
In turn, `C/C=C1/CC(C)C(C)(O)C(=O)OCC2C(O)CN3CCC(OC1=O)C23` (configuration not stated) had a TGI of over 100 µM.
Turning to `CCOc1ccn(-c2ccc(F)cc2)c(=O)c1C(=O)Nc1ccc(Oc2ccnc(N)c2Cl)c(F)c1`, the GI50 is 29.4 µM and the TGI is over 100 µM.
In turn, `O=C1O/C(=C/c2ccccc2)C(c2ccccc2)=C1O` gave a TGI of over 100 µM.
As to `COc1cccc(C2c3cc4c(cc3OC(NNS(=O)(=O)c3ccc(C)cc3)C2C)OCO4)c1OC` (configuration not stated), the TGI was 58 µM.
`CC(C)=CCCC(C)CCOS(=O)C(F)(F)F` (configuration not stated) returned a TGI of over 100 µM.
In the case of `NC1CCC(N(CC(=O)O)CC(=O)O)C(N(CC(=O)O)CC(=O)O)C1` (configuration not stated), the TGI was over 100 µM.
Same read-out and setting: as for `O=c1c(Cl)c(Cl)cnn1CCCl`, the figure is 22.8 µM; as for `Cc1cc(C)c(-c2noc(-c3ccc(Cl)cc3)c2C2=NCCCN2)c(C)c1`, over 100 µM.
`CN(/N=C/c1ccnc2ccccc12)c1c([N+](=O)[O-])cc([N+](=O)[O-])cc1[N+](=O)[O-]` came in with a TGI of over 100 µM.
As for `NC1=NN(c2ccccc2)C(=O)C1C(=O)C(=O)Nc1ccc(Cl)c(Cl)c1` (configuration not stated), the TGI was over 100 µM.
Same read-out and setting: as for `COC1OC2COC(C)(C)OC2C(OC(C)=O)C1NC(=O)N(CCCl)N=O` (configuration not stated), the figure is over 100 µM; as for `CCN(CC)CSc1nc2ccccc2[nH]1`, over 100 µM.
Molecule `COC1(OC)C2(Cl)C(Cl)=C(Cl)C1(Cl)C1C2C2CC1(C(=O)O)c1ccccc12` (configuration not stated) showed a TGI of over 100 µM.
Regarding `Cc1cc(Nc2nc(N[C@@H](C)c3ncc(F)cn3)ncc2Cl)n[nH]1`, the GI50 was 39.1 µM and the TGI was over 100 µM.
With `O=C1Nc2nccnc2C(=O)N2CCC[C@@H]12`, the TGI is over 100 µM.
Consider `CC(=O)C1=C(O)C=C2Oc3c(C(=O)/C=C/c4cc(Cl)cc(Cl)c4)c(O)c(C)c(O)c3[C@]2(C)C1=O`, for which the GI50 is 0.578 µM and the TGI stood at 2.7 µM.
`CCOC(=O)CC(NC(=O)c1[nH]cnc1/N=N/N(C)C)C(=O)OCC` (configuration not stated) came in with a TGI of over 100 µM.
In turn, `O=C1CC(CC(=O)c2ccc(Br)cc2)C(=O)/C1=C(/O)c1ccc(Br)cc1` (configuration not stated) had a TGI of over 100 µM.
On the same count and under the same terms, as for `COc1nc(N)c(NC(C)=O)c(=O)n1C`, the figure is over 100 µM.
With `CC(=O)N1N=C(c2ccc(Nc3nc(Nc4ccc(F)cc4)nc(Nc4ccc(F)cc4)n3)cc2)CC1c1ccc(N(C)C)cc1` (configuration not stated), the GI50 was 17.8 µM and the TGI worked out at 70 µM.
In turn, `CCOC(=O)c1c(NC(=S)Nc2ccc(Cl)cc2)sc2c1CCN(C)C2` yielded a TGI of over 100 µM.
Take `Cc1cc2c(-c3nc4ccccn4c3N)c(O)c(O)cc2c(O)c1-c1c(C)cc2c(-c3nc4ccccn4c3N)c(O)c(O)cc2c1O`: the GI50 was 1.57 µM and the TGI was over 25 µM.
For `CC(Nc1ccc(Cl)c(Cl)c1)c1ccncc1` (configuration not stated), the TGI was 8.06 µM.
`O=C(Nc1ccc(Cl)c(Cl)c1)C(=O)C(C(=O)c1ccccc1-c1ccccc1)C1OC(=O)c2ccccc21` (configuration not stated) showed a TGI of 30.3 µM.
Still for that read-out and setting: the figure for `CCCCCc1c(CCCC)c(=O)[nH]c2nc(NC(=O)CCCC)ccc12` is over 100 µM.
In turn, `CC(C)=CCC[C@@H](C)C1=C(O)C(Nc2ccccc2Cl)=C(C)C(=O)C1=O` came in with a TGI of over 75 µM.
Same read-out and setting: as for `O=C1C2C3CC(C4C5C=CC(C5)C34)C2C2C3CC(C12)C1C2C=CC(C2)C31` (configuration not stated), the figure is over 100 µM.
